The source of these data is ChEMBL document CHEMBL1156829.

In all, about 5,400 compounds were measured (“IFI”: median about 2, highest 2% from about 22 on). The list shows a part of the results.

The test in a line: NOVARTIS: Inhibition Frequency Index (IFI) - the number of HTS assays where a compound showed > 50% inhibition/induction, expressed as a percentage of the number of assays in which the compound was tested. In kind it is functional.
Turning to `COc1ccccc1-n1c(C(C)N(C)C(=O)Nc2ccccc2F)nc2ccccc2c1=O` (stereo unspecified), the IFI was 4.9%. In turn, `CCOc1ccc2[nH]c(=O)c(CN(CCCN3CCOCC3)C(=S)NCCCN(CC)CC)cc2c1` yielded an IFI of 4.42%. `C/C(Cl)=C/C[N+]1(CC#Cc2cccc3ccccc23)CCOCC1` displayed an IFI of 3.03%. The result for `Cc1cccc(OCC(O)CN2CCN(CC(=O)c3ccc(Br)cc3)CC2)c1` (stereo unspecified) reads 3.08%.

Consider `COc1ccccc1NC(=O)c1n[nH]c(=O)c2ccccc12`, for which the IFI was 0%. `CCCCC(=O)Oc1ccccc1-c1nc2cc(C)ccn2c1NC(C)(C)CC(C)(C)C` showed an IFI of 4.67%. The result for `C=CCN1C(=O)/C(=C\c2ccccc2)C(C(=O)OC)=C1C` reads 5.26%; that for `NC(=O)/C(=C\c1cccc2ccccc12)NC(=O)c1ccccc1`, 0%. The compound `CCN1/C(=C/c2ccc3cc(OC)ccc3[n+]2CC)Sc2cc(C)ccc21` showed an IFI of 21.8%.

`COC(=O)C1=C(C)N(C)C(C)=C(C(=O)OC)C1c1ccc(C)cc1` had an IFI of 2.35%. The result for `O=C(CN(CCN1CCOCC1)S(=O)(=O)c1ccccn1)N1CCN(C(c2ccccc2)c2ccccc2)CC1` reads 0%; that for `CCC(C)(C)n1nnnc1C(c1cc2cc(C)cc(C)c2[nH]c1=O)N1CCN(c2ccc(O)cc2)CC1` (stereo unspecified), 2.73%; that for `COc1ccccc1Nc1nc2cc([N+](=O)[O-])c([N+](=O)[O-])cc2nc1Nc1cccc(Cl)c1`, 0%.

Turning to `O=C(CC1SC(=Nc2ccccc2)NC1=O)Nc1cc(Cl)ccc1Cl` (stereo unspecified), the IFI stood at 3.45%.

`CCc1ccccc1N1C(=O)CN(Cc2ccccc2)C1=S` displayed an IFI of 0%. The result for `OC1CCCCC1C1(NC(=S)Nc2ccccc2)CCCCC1` (stereo unspecified) reads 2.13%. In turn, `Cc1ccn2c(NC(C)(C)CC(C)(C)C)c(-c3ccccc3OC(=O)C34CC5CC(CC(C5)C3)C4)nc2c1` showed an IFI of 2.04%. `O=C(O)c1ccc(S(=O)(=O)c2ccc3c(c2)C(=O)N(c2ccc(Sc4ccc([N+](=O)[O-])cc4)cc2)C3=O)cc1` gave an IFI of 0%. The result for `O=C(CN1CCN(C(=O)c2ccccc2)CC1)Nc1ccc(-c2nc3cc(NC(=O)CN4CCN(C(=O)c5ccccc5)CC4)ccc3o2)cc1` reads 3.75%; that for `Clc1ccc(C2Nc3ccc4ccccc4c3C3C=CCC32)c(Cl)c1` (stereo unspecified), 0%. The result for `C=CCSc1nnc2c(n1)[nH]c1ccc(OCC)cc12` reads 11.3%. The result for `O=C(NN=CC(Br)=Cc1ccccc1)c1ccc(F)cc1` reads 0%; that for `CCCCCCCCCCCCOCCCNC(=O)c1cccc(N)c1`, 1.97%. Compound `CCOc1cc(Br)cc(C=NNC(=O)COc2cccc(C)c2)c1O` had an IFI of 5.15%.

In the case of `CC1=C(C(=O)OCCOc2ccccc2)C(c2cccc([N+](=O)[O-])c2)C2=C(CCCC2=O)N1` (stereo unspecified), the IFI is 0%.

In turn, `Cc1ccc(NC(=O)c2cc(C(=O)c3cc(Cl)ccc3O)cn(-c3ccc(C)cc3C)c2=O)c(C)c1` had an IFI of 6.25%.
